# Measurements as given in publication PMC6919601, “Identification of Plasmodium dipeptidyl aminopeptidase allosteric inhibitors by high throughput screening” (PLoS ONE, 2019).
# The campaign covered roughly 110,000 compounds. About 230 (0.21%) showed an effect of 50% or more. The list shows a part of the results.
# Biological target: DPAP1 (Plasmodium falciparum, UniProt Q8IIJ9)
# Experiment: primary screen, percent inhibition; read by cleavage of a fluorogenic dipeptide substrate; higher = more effect of the substance
# Set-up: species or system P. falciparum D10 trophozoite lysates; single well
# 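Also: 30 min substrate incubation versus DMSO and 10 µM JCP410 controls.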
# Sequence of DPAP1 (Q8IIJ9 whole entry, looked up): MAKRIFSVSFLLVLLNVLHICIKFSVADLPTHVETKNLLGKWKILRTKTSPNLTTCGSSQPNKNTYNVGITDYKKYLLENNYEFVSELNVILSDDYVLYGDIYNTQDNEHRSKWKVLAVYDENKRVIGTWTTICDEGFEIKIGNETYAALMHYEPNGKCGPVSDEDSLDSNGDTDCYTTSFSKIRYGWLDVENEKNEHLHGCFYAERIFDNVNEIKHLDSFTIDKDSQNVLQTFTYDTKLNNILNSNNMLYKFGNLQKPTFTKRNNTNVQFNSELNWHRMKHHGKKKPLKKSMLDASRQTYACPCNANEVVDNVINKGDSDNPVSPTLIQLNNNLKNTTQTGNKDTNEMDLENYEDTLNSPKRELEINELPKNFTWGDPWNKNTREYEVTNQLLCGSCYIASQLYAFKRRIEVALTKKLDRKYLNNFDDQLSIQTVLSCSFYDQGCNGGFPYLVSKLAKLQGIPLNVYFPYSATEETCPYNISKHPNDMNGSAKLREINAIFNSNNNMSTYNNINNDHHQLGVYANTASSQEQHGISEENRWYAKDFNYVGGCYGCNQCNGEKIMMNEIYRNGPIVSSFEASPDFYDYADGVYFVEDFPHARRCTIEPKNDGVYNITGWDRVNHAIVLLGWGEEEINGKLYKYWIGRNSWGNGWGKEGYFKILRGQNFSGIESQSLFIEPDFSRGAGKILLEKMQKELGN
row,Compound,% Inhibition @ 10 uM [%]
1,CC1CCN(C(=O)C2CCC(C)(C(=O)O)C2(C)C)CC1 (centres unmarked),-0.553
2,O=C(NCCCN1CCCC1)c1ccc(CSCc2cccc(Cl)c2)o1,0.718
3,COc1cc(CN2CCN(Cc3ccc4c(c3)OCO4)CC2)cc(OC)c1,-12.3
4,COc1ccc(S(=O)(=O)N2CCN(Cc3ccccc3)CC2)c(Cl)c1Cl,-10.7
5,CCCn1c2ccccc2c2cnn(CC(=O)N3CCN(c4ccccn4)CC3)c(=O)c21,2.82
6,CCOc1ccc(C2CC(c3c(O)cc(C)oc3=O)=NCCS2)cc1 (centres unmarked),-2.32
7,C=CCOc1ccc2c(C)cc(=O)oc2c1C(=O)c1ccccc1,0.27
8,O=C(Cn1cc(S(=O)(=O)Cc2c(F)cccc2Cl)c2ccccc21)N1CCCC1,-7.42
9,CCc1c(C)sc(NC(=O)c2cccc(F)c2)c1C(=O)OC,-2.27
10,CC(C)c1ccc(C(=O)N2CCN(C/C=C/c3ccccc3)CC2)cc1,-4.6
11,CC(=O)NCCc1ccc(S(=O)(=O)N(C)C2CCS(=O)(=O)C2)cc1 (centres unmarked),-4.42
12,CCN1C(=O)N/C(=C/c2ccc(N(C)C)c(Br)c2)C1=O,4.22
13,COc1ccc(CNc2nc3ccccc3c3nc(CCn4c(C)nc5ccccc54)nn23)cc1,-2.64
14,CC1(C)CC(=O)c2cnc(NCc3ccc(F)cc3)nc2C1,1.74
15,Cc1c(C(=O)O)sc(-c2ccccc2)c1C(=O)O,6.79
16,CC1=C(C(=O)Nc2cccc(C)n2)C(c2ccc(N(C)C)cc2)C2=C(O)CC(C)(C)CC2=N1 (centres unmarked),4.32
17,Cc1nn(C(=O)CCC(=O)NCCC2=CCCCC2)c2ccccc12,-1.11
18,CCN1CCN(Cc2ccsc2)CC1,1.63
19,CCOC(=O)C1=C(CN2CCN(C)CC2)NC(=O)NC1c1ccc(C)cc1 (centres unmarked),-2.92
20,O=C(NCCSCc1c(Cl)cccc1Cl)c1ccco1,-0.99
21,COc1ccc(C(=O)N(CCCN(C)C)c2nc3c(F)cc(F)cc3s2)cc1OC,0.49
22,CC(C)c1ccc(C2=CC(c3ccc(Cl)cc3)n3nnnc3N2)cc1 (centres unmarked),0.219
23,CCN(CC)c1ccc(NC(=O)c2csc3ccccc23)cc1,3.8
24,Clc1cccc(-c2nn[nH]n2)c1,3.5
25,CC(C)C(=O)Nc1ccc(S(=O)(=O)Nc2nccs2)cc1,0.658

row,Compound,% Inhibition @ 10 uM [%]
1,CS(=O)(=O)CCC(C(=O)N1CCCCCC1)N1Cc2ccccc2C1=O (centres unmarked),-3.56
2,CCN1CCN(C(=O)c2ccc(Br)cc2)CC1,-2.78
3,O=C(CSc1nnc(CNC(=O)c2ccco2)o1)NCc1ccc(F)cc1,-1.58
4,Cc1cc(NC(=O)C2c3ccccc3Oc3ccccc32)c2ccccc2n1,-6.62
5,Cc1cc(O)c(C2=NCCSC(c3cc([N+](=O)[O-])ccc3O)C2)c(=O)o1 (centres unmarked),17.5
6,CCc1ccc(S(=O)(=O)N2CCN(c3cccc(Cl)c3)CC2)cc1,-3.71
7,O=C1CC(c2ccccc2)CN1C(=O)c1ccccc1Cl (centres unmarked),-3.97
8,C=CCSc1nc(O)c2c(n1)NC(=O)CC2c1ccc(OCC)c(OC)c1 (centres unmarked),-2.88
9,CCC1=C(c2ccc(C)cc2)S(=O)(=O)N=C1N1CCC(C(=O)NC2CCCc3ccccc32)CC1 (centres unmarked),-1.75
10,CCN1CCN(C(=O)COc2ccc3c(c2)C(=O)CC2(CCN(C(C)=O)CC2)O3)CC1,0.0654
11,CN1CCN(C(=O)c2c(NC(=O)c3ccccc3)sc3c2CCC(C(C)(C)C)C3)CC1 (centres unmarked),0.343
12,CCCCN(CC)CCNC(=O)C1CCN(c2nnc(C)c3c(C)n(-c4ccccc4)nc23)CC1,5.62
13,Cc1cc(C)cc(OCCNC(=O)CCCCCN2C(=O)c3ccccc3C2=O)c1,-2.87
14,CC1=C(C#N)C(=O)N(Cc2ccccc2)C(=O)/C1=C\NC(=O)NC12CC3CC(CC(C3)C1)C2,0.674
15,COc1cccc(Cn2nnc(C(=O)NCc3ccccc3Cl)c2N)c1,-2.25
16,O=C(Nc1ccc(Cc2ccncc2)cc1)C(F)(F)F,-1.98
17,CC1CN(C(=O)c2ccccc2)OC(c2ccc3c(c2)OCO3)O1 (centres unmarked),3.05
18,CCOC(=O)c1c(N)sc2c1CCC/C2=N/O,3.82
19,CCc1ccc2ncc(S(=O)(=O)c3ccc(F)cc3)c(O)c2c1,3.2
20,C[C@@H]1[C@@H](OC(=O)NCCc2ccccc2)C[C@H]2C[C@@H]1C2(C)C,8.06
21,Cc1cccc(-c2nc(CSCC(=O)N3CCc4ccccc4C3)c(C)o2)c1,0.689
22,CCOC(=O)N1CCN(C(=O)Cn2cnc3onc(-c4ccc(Cl)cc4)c3c2=O)CC1,-4.23
23,CC(=O)c1ccc(S(=O)(=O)N=C2C=C(C(C)(C)C)C(=O)C(C(C)(C)C)=C2)cc1,1.67
24,Cc1oc(-c2cccs2)nc1CSCC(=O)NCCC1=CCCCC1,0.689
25,O=C(Nc1ccc(Cl)cn1)c1cc2c(s1)-c1ccccc1OC2,-10.5

row,Compound,% Inhibition @ 10 uM [%]
1,Cc1ccc(-c2cc(NC(=O)c3ccc(F)cc3)on2)cc1,-5.08
2,Cc1ccc(CNC(=O)C2CCN(c3nnc(N4CCCC4=O)s3)CC2)cc1,0.623
3,CS(=O)(=O)c1ccc2nc(NC(=O)CN3CCN(Cc4ccccc4)CC3)sc2c1,7.68
4,CC(C)(C)C1CC=C2C(C#N)=C(N)C(C#N)(C#N)C(c3ccccc3)C2C1 (centres unmarked),-1.68
5,COc1cccc(C2(c3ccc(O)cc3)CCCC2)c1,6.19
6,COc1cccc(-c2nc(SCC(=O)Nc3sc4c(c3C#N)CCCC4)nc(O)c2C#N)c1,5.41
7,CCOc1ccc(C(=O)Nc2nc3c(s2)CCc2ccccc2-3)cc1,4.35
8,Oc1cnnc(NCc2ccco2)n1,5.85
9,COc1ccc(-c2cc(C(=O)N3C(C)CCCC3C)no2)cc1OC (centres unmarked),9.67
10,Cc1cccc(NC(=O)CN2C(=O)N/C(=C/c3cccn3-c3ccccc3)C2=O)c1,-3.84
11,CC(C)(C)c1ccc(OCCCC(=O)Nc2nccs2)cc1,-6.86
12,CCCC1CN2CCC3=C(CCC3)C2(C)C1 (centres unmarked),-2.9
13,CC1=NC(=S)C(C#N)C(C)=C1Cc1ccccc1 (centres unmarked),46.9
14,CC(C)CC(=O)Nc1nonc1-c1ccc(Cl)cc1,0.635
15,Cc1ccc(/C=C2/SC(Nc3cccc(C)c3C)=NC2=O)o1,2.6
16,CC1(C)CC2(CC(c3ccccc3Cl)Oc3cc(O)ccc32)NC(=S)N1 (centres unmarked),2.8
17,CN(C)c1nc(-c2ccccc2O)nc2ccccc12,-1.48
18,CSc1ncc(C(=O)NC2CCN(Cc3ccccc3)CC2)c(-c2ccccc2)n1,5.4
19,CCCCNc1ccncc1S(=O)(=O)NC(=O)NC(C)C,0.245
20,CCOC(=O)c1c(C)[nH]c(C)c1S(=O)(=O)N(C)CC(=O)NC1CCCCCC1,-5.12
21,Cc1ccc(C)c(/N=C2/SC(CC(=O)Nc3ccc(C(=O)O)cc3)C(=O)N2C)c1 (centres unmarked),4.84
22,CCN(CC)C(=O)CSc1nc(-c2ccc(OC)cc2)nc2c1Cc1c(CO)cnc(C)c1O2,-3.15
23,O=c1ccc2cc(S(=O)(=O)NCc3ccccc3)ccc2o1,-1.72
24,COCCNC(=O)c1ccc(CS(=O)c2cccc(C)c2)o1 (centres unmarked),1.77
25,Cc1cc(C)c(C(=O)/C=C/c2ccccc2Cl)c(O)n1,4.57

row,Compound,% Inhibition @ 10 uM [%]
1,O=C(COc1ccc(/C=C2/SC(=O)N(CC(=O)N3CCOCC3)C2=O)cc1)N1CCOCC1,2.65
2,Cc1cc(C)n(CCc2nc3c4ccccc4nc(SCc4cccc(F)c4)n3n2)n1,0.4
3,O=C(CC(c1ccccc1)c1cc(Cl)ccc1O)N1CCCCC1 (centres unmarked),0.843
4,CCS(=O)(=O)c1ncc(Cl)c(C(=O)N(Cc2ccc(Cl)cc2)Cc2ccco2)n1,2.19
5,CCSC1=C(C#N)C(c2ccccc2OC)CC(=O)N1 (centres unmarked),2.67
6,Cc1nn(CC(=O)NCCC2=CCCCC2)c(=O)c2cccn12,0.697
7,CCc1nc2cccnc2n1-c1ccc(CC(=O)NCCOC)cc1,-4.03
8,COc1ccc2[nH]c3c(=O)n(CCCCCC(=O)NCc4ccc(F)cc4)c(=S)[nH]c3c2c1,-2.16
9,Cc1cccc(NC(=O)CCc2nnc3ccc(N4CCN(C)CC4)nn23)n1,4.8
10,Cc1c(C(=O)N2CCN(C)CC2)oc2c1-c1nn(Cc3ccc(Cl)cc3)cc1CC2,-9.66
11,CCCCOc1ccc(N2C(=O)c3ccccc3C2=O)cc1,-0.28
12,CC1CCc2nn(CC(=O)NCCC3=CCCCC3)cc2C1 (centres unmarked),3.4
13,CCC(=O)Nc1sc(C(=O)N(CC)CC)c(C)c1C(N)=O,22.7
14,CSc1nc(-c2ccccc2)nc(SC)c1C(C)=O,-0.351
15,COc1cccc2cc(C(=O)N3CCC(C)CC3)c(=O)oc12,5.88
16,COc1ccc(CC(=O)Nc2c(C(=O)NC(C)(C)C)oc3ccccc23)cc1,1.06
17,Cc1cccc(S(=O)Cc2ccc(C(=O)N3CCN(C(=O)c4ccco4)CC3)o2)c1 (centres unmarked),1.77
18,CCN1CCN(CCNC(=O)CS(=O)(=O)Cc2nc(-c3ccc(C)cc3)oc2C)CC1,-2.11
19,CCOc1ccc(CCNC(=O)c2cc3oc4ccccc4c3n2C)cc1OCC,-0.447
20,CN(C)CN1C(=O)S/C(=C\c2ccc3c(c2)OCO3)C1=O,1.27
21,Cc1cc(C)c(O)c(NC(=O)COc2cccc(C)c2C)c1,-2.74
22,O=C1CC(NCCc2ccccc2)C(=O)N1c1ccccc1C(F)(F)F (centres unmarked),-7.81
23,CCN(CC)C(=O)CSc1nc(-c2ccccc2)nc2c1Cc1ccccc1O2,0.44
